Experimental data: PubChem BioAssay AID493208 (National Center for Advancing Translational Sciences (NCATS), 2011)
Screen size: about 44,000 compounds; about 340 (0.77%) were called active. Not shown: some 5% with an inconclusive outcome. The call rests on the fitted dose curve; in most records, active means well fitted inhibition curve with a large enough effect; inconclusive means small, poorly fitted or top-dose-only effect; inactive means flat fitted curve, though single readings scatter. This is one part of the list.

experiment: Acumen qHTS Assay for Inhibitors of the mTORC1 Signaling Pathway in MEF (Tsc2-/-, p53-/-) Cells: Sytravon; settings: phospho-rpS6 immunofluorescence/PI, 24 h; series mostly up to 38.3 µM; activity change, negative = inhibition: at the top concentration;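 further: plate controls were DMSO for no effect and rapamycin for full effect; nearly all actives have a fitted effect of over 50% in size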
Summary of the method: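 Read-out: phospho-S6 Alexa-488 intensity over PI intensity per well, scored as % active cells using thresholds from rapamycin (7.5 nM) and DMSO controls. Tsc2-/-, p53-/- MEFs exposed to compound for 24 h; PI cell count recorded as viability.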

Activity change, negative = inhibition, inactive:
O=C(CSc1nccn1Cc1ccc(Cl)cc1)NCc1ccccc1 -15.1%
CCOC(=O)c1ccc(N2C(=O)c3n[nH]c(-c4ccco4)c3C2c2ccc(F)cc2)cc1 (stereo unspecified) -0.336%
COc1ccccc1CNC(=O)C(CC(C)C)N1Cc2ccccc2C1=O (stereo unspecified) -11%
O=C(CN1C(=O)C2(SCC(=O)N2c2ccc(F)c(F)c2)c2ccccc21)Nc1ccccc1F (stereo unspecified) -8.03%
Cc1cccc(CC(=O)NCCc2csc(-c3ccc(C(F)(F)F)cc3)n2)c1 -25.9%
Cc1ccc(C)c(C(=O)COC(=O)CCCC(=O)Nc2cc(C(F)(F)F)ccc2Cl)c1 -17.9%
CC(=O)Nc1cccc(NC(=O)CSc2cn(CC(=O)N3CCCCCC3)c3ccccc23)c1 -4.44%
CNC(=O)C1CCC(Cn2c(=O)c3sccc3n(CC(=O)Nc3cc(F)ccc3F)c2=O)CC1 (stereo unspecified) -4.85%
CCOC(=O)c1cccc(NC(=O)N2CCC(CN3CCCCCC3)CC2)c1 -8.26%
O=C(c1cn(CCOc2ccc(Cl)cc2)c2ccccc12)C1CCCCC1 1.38%
COc1cn(CC(=O)Nc2cc(C)ccc2C)c(CN2CCCCC2)cc1=O 1.39%
O=[N+]([O-])c1cc(-c2nc(-c3ccncc3)no2)ccc1NCc1ccccc1 -6.61%
COc1ccccc1NC(=O)C1=C(C)Nc2nc(SCc3ccccc3Cl)nn2C1c1ccncc1 (stereo unspecified) -3.94%
CCN(CC)S(=O)(=O)c1ccc(C(=O)NCCSc2c(-c3ccc(OC)cc3)[nH]c3ccccc23)cc1 -11.3%
CCOc1ccc(C(=O)c2cn(CC(=O)Nc3cc(OC)ccc3OC)c3cc(OC)c(OC)cc3c2=O)cc1 -1.41%
COc1ccc(-c2ccc(=O)n(CC(=O)NCCc3ccccc3)n2)cc1 0.8%
CCc1ccc(OCCSc2nc(-c3cccc(C)c3)nc3cc(=O)[nH]n23)cc1 -1.82%
COc1ccc(NC(=O)CCSc2nc(-c3ccco3)cc(C(F)(F)F)n2)cc1OC -0.529%
O=C(CN1C(=O)C2(SCC(=O)N2c2ccc(F)cc2)c2ccccc21)NCCc1ccccc1 (stereo unspecified) -5.67%
COc1ccc(NCc2nnc3n2CCCCC3)c(OC)c1 6.64%
Cc1cc(C)cc(Nc2cc(C(=O)NCc3ccccc3)c3ccccc3n2)c1 -1.36%
O=C(Nc1ccccc1C(F)(F)F)c1cc2ccccn2n1 3.27%
CCOC(=O)C1CCN(C(c2ccc(F)cc2)c2sc3nc(-c4ccco4)nn3c2O)CC1 (stereo unspecified) 0.331%
Cc1cc(C)c(NC(=O)C(C)n2nnc3sc(-c4ccccc4)cc3c2=O)c(C)c1 (stereo unspecified) -0.187%
CCOC(=O)c1cccc(NC(=O)c2cc3cc4ccc(C)cc4nc3s2)c1 -2.01%
CSc1ccc(CCNC(=O)c2cc3c(-c4ccccc4F)nn(C)c3s2)cc1 -11.9%
Nc1c(C(=O)NCc2ccccc2)nnn1Cc1cccc(Br)c1 -22.1%
Cc1cccc(NC(=O)Cn2c(=O)n(CCC(=O)N3CCc4ccccc4C3)c(=O)c3ccccc32)c1 1.93%
CCOC(=O)c1cc(-c2ccc(F)cc2)n(CCC(=O)NC2CCCCC2)c1C 0.962%
Cc1cc(C)cc(Nc2nc3c(S(=O)(=O)c4cccc(Cl)c4)nnn3c3ccsc23)c1 -6.5%
CC(=O)Nc1ccc(C(=O)CSc2nnc3ccc4ccccc4n23)cc1 -1.48%
CCOC(=O)c1cc2c(=O)n3ccccc3nc2n(C)c1=NC(=O)c1cc2ccccc2o1 0.0798%
O=S(=O)(NCc1ccc(Cl)cc1)c1ccc(N2CCCCS2(=O)=O)cc1 -18.9%
CCOc1ccc(NC(=O)NCCN2CCN(c3ccccc3F)CC2)cc1 -7.49%
COc1cccc(NC(=O)c2ccc(-c3nc(COc4ccc(C)cc4)c(C)o3)cc2)c1 -4.62%
Cc1ccc2c(c1)c1c(c(=O)n(-c3ccccc3C)c(=O)n1CC(=O)NCC1CCCO1)n2C (stereo unspecified) 2.54%
Cc1ccc(C)c(NC(=O)CCCN2C(=O)C(c3ccccc3)Oc3cccnc32)c1 (stereo unspecified) -3.61%
O=C(CNC(=O)c1ccc(Cl)cc1)OCc1cc(=O)n2nc(C3CCCCC3)sc2n1 -3.86%
Nc1c(C(=O)Nc2ccc(Br)cc2)sc2nc(-c3ccncc3)ccc12 2.18%
COc1ccc(S(=O)(=O)N(CC(=O)Nc2cccnc2)c2ccc(C)cc2)cc1OC 10.1%
COc1cc2c(=O)n(CCC(=O)NCC3CCCO3)c(=O)n(CC(=O)Nc3ccc(F)cc3)c2cc1OC (stereo unspecified) -12.2%
Cc1ccc(O)c(NC(=O)CCS(=O)(=O)c2nc(-c3ccc4c(c3)OCO4)cc(C(F)(F)F)n2)c1 -21.7%
Cc1ccc(-n2nnc(-c3nsc(NC(=O)c4ccc(C)c(C)c4)n3)c2C)cc1 2.32%
CCc1ccc(CNC(=O)CCn2c(=O)c3cccn3c3ccc(F)cc32)cc1 0%
CCOc1ccccc1CNC(=O)c1cc(-c2ccc(C)c(C)c2)nc2ccccc12 9.26%
CCn1c(CN2CCCCC2)nc2cc(NC(=O)c3ccc([N+](=O)[O-])cc3)ccc21 -15.3%
CCOc1ccccc1NC(=O)COc1ccc(S(=O)(=O)NC2CCCCC2)cc1 -15.9%
COc1cccc2sc(N3CCN(C(=O)CCS(=O)(=O)c4ccc(F)cc4)CC3)nc12 -1.85%
CCCS(=O)(=O)N1CCC(n2c(C(F)(F)F)nc3cccnc32)CC1 7.04%
Cc1ccsc1CN(C(=O)c1oc2ccccc2c1C)C1CCS(=O)(=O)C1 (stereo unspecified) -1.05%
Cc1ccc(CNC(=O)C(=O)NCC(c2cccnc2)N2CCN(c3ccccc3F)CC2)cc1 (stereo unspecified) -0.369%
CCn1c(=O)c2sccc2n2c(CCC(=O)Nc3ccc(OC)c(Cl)c3)nnc12 22.1%
Cc1ccc(C(=O)Nc2nc(-c3ccccc3)ns2)cc1 -0.401%
Cc1ccc(NC(=O)Cn2nnc(C(=O)NCCc3ccccc3)c2N)cc1C -4.45%
Cc1oc2ncn(C)c(=O)c2c1C(=O)NCCCN(Cc1ccccc1)C(C)C 1.14%
CC(C)Oc1ccc(CNC(=O)C2CCN(c3nc4ccccc4n(C)c3=O)CC2)cc1 -3.91%
CCc1ccc(C2NC(=O)c3[nH]nc(-c4cccc(OC)c4)c32)cc1 (stereo unspecified) -11.9%
CS(=O)(=O)N1CCc2cc(C(=O)Nc3cccc(F)c3)ccc21 -10.6%
COc1ccccc1CC(=O)Nc1ccc2nc(N3CCC(C)CC3)cc(C)c2c1 1.36%
Cc1ccc(C)c(Cn2c3ccccc3c3cnn(CC(=O)NC(C)c4ccccc4)c(=O)c32)c1 (stereo unspecified) -4.32%
CCOC(=O)c1ccc(-c2ccc(/C=C(\C#N)C(=O)Nc3ccc(C)cc3OC)o2)cc1 -1.63%
